# Measured values published in the supplement of paper PMC8728848.
# The list shows a part of the results.
# Assays:
# Test in all cases: glycan array binding signal (z-score within array); higher = stronger binding
# Settings in all cases: glycan notation: IUPAC condensed, linker removed
# Neu5Ac(a2-8)Neu5Ac = molecular target: Neu5Ac(a2-8)Neu5Ac
# Summary of the method: (§1)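 Glycan array data came from 3228 arrays in the Consortium for Functional Glycomics database, and only arrays with an available protein sequence were kept. Glycan names were put into IUPAC-condensed notation, and columns mapping to the same glycan were averaged. The binding signal is a within-array Z-score, averaged across arrays of one protein sequence run at different concentrations or buffers and across linkers. A negative Z-score can be read as non-binding.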
# [1] = molecular target: Neu5Ac(a2-8)Neu5Ac(a2-3)Gal(b1-3)GalNAc(b1-4)[Neu5Ac(a2-3)]Gal(b1-4)Glc
# Summary of the method: as §1
# [2] = molecular target: Neu5Ac(a2-8)Neu5Ac(a2-3)Gal(b1-3)GalNAc(b1-4)[Neu5Ac(a2-8)Neu5Ac(a2-3)]Gal(b1-4)Glc
# Summary of the method: as §1
# [3] = molecular target: Neu5Ac(a2-8)Neu5Ac(a2-3)Gal(b1-4)Glc
# Summary of the method: as §1
# [4] = molecular target: Neu5Ac(a2-8)Neu5Ac(a2-3)Gal(b1-4)GlcNAc
# Summary of the method: as §1
# [5] = molecular target: Neu5Ac(a2-8)Neu5Ac(a2-3)[Gal(b1-3)GalNAc(b1-4)]Gal(b1-4)Glc
# Summary of the method: as §1
# [6] = molecular target: Neu5Ac(a2-8)Neu5Ac(a2-3)[GalNAc(b1-4)]Gal(b1-4)Glc
# Summary of the method: as §1
# [7] = molecular target: Neu5Ac(a2-8)Neu5Ac(a2-8)Neu5Ac
# Summary of the method: as §1
# [8] = molecular target: Neu5Ac(a2-8)Neu5Ac(a2-8)Neu5Ac(a2-3)Gal(b1-4)Glc
# Summary of the method: as §1
# [9] = molecular target: Neu5Ac(a2-8)Neu5Ac(a2-8)Neu5Ac(a2-3)[Gal(b1-3)GalNAc(b1-4)]Gal(b1-4)Glc
# Summary of the method: as §1
# [10] = molecular target: Neu5Ac(a2-8)Neu5Ac(a2-8)Neu5Ac(a2-3)[GalNAc(b1-4)]Gal(b1-4)Glc
# Summary of the method: as §1
# [11] = molecular target: Neu5Ac(a2-8)Neu5Ac(a2-8)Neu5Ac(a2-8)Neu5Ac(a2-3)[GalNAc(b1-4)]Gal(b1-4)Glc
# Summary of the method: as §1
# [12] = molecular target: Neu5Ac(a2-8)Neu5Gc(a2-3)Gal(b1-4)GlcNAc
# Summary of the method: as §1
# [13] = molecular target: Neu5Ac(b2-6)Gal(b1-4)GlcNAc
# Summary of the method: as §1
# Neu5Ac(b2-6)GalNAc = molecular target: Neu5Ac(b2-6)GalNAc
# Summary of the method: as §1
# [14] = molecular target: Neu5Ac9Ac(a2-3)Gal(b1-3)GlcNAc
# Summary of the method: as §1
# [15] = molecular target: Neu5Ac9Ac(a2-3)Gal(b1-4)GlcNAc
# Summary of the method: as §1
# [16] = molecular target: Neu5Ac9Ac(a2-6)Gal(b1-4)GlcNAc
# Summary of the method: as §1
# [17] = molecular target: Neu5Gc(a2-3)Gal(b1-3)GlcNAc
# Summary of the method: as §1
# [18] = molecular target: Neu5Gc(a2-3)Gal(b1-3)[Fuc(a1-4)]GlcNAc
# Summary of the method: as §1
# Neu5Gc(a2-3)Gal(b1-4)Glc = molecular target: Neu5Gc(a2-3)Gal(b1-4)Glc
# Summary of the method: as §1
# [19] = molecular target: Neu5Gc(a2-3)Gal(b1-4)GlcNAc
# Summary of the method: as §1
# [20] = molecular target: Neu5Gc(a2-3)Gal(b1-4)GlcNAc(b1-3)Gal(b1-4)GlcNAc(b1-2)Man(a1-3)[Neu5Gc(a2-3)Gal(b1-4)GlcNAc(b1-3)Gal(b1-4)GlcNAc(b1-2)Man(a1-6)]Man(b1-4)GlcNAc(b1-4)GlcNAc
# Summary of the method: as §1
# [21] = molecular target: Neu5Gc(a2-3)Gal(b1-4)[Fuc(a1-3)]GlcNAc
# Summary of the method: as §1
# [22] = molecular target: Neu5Gc(a2-6)Gal(b1-4)GlcNAc
# Summary of the method: as §1
# Neu5Gc(a2-6)GalNAc = molecular target: Neu5Gc(a2-6)GalNAc
# Summary of the method: as §1
# [23] = molecular target: Neu5Gc(a2-8)Neu5Ac(a2-3)Gal(b1-4)GlcNAc
# Summary of the method: as §1
# [24] = molecular target: Neu5Gc(a2-8)Neu5Gc(a2-3)Gal(b1-4)GlcNAc
# Summary of the method: as §1
# [25] = molecular target: Neu5Gc(a2-8)Neu5Gc(a2-3)Gal(b1-4)GlcNAc(b1-3)Gal(b1-4)GlcNAc
# Summary of the method: as §1
# [26] = molecular target: Neu5Gc(a2-8)Neu5Gc(a2-6)Gal(b1-4)GlcNAc
# Summary of the method: as §1
# [27] = molecular target: Neu5Gc(b2-6)Gal(b1-4)GlcNAc
# Summary of the method: as §1
binder,measurement,setting,value
PX9961A-pdi-456-24-456 (Parabacteroides distasonis) (protein) KTSSTQLPTIDAISSVADLTNAVNGVYEQQATEVGSYGAEFTLLADLRSGDFQSISTVNHAGPMYRYQTGKNDEMVYSFYKLFYNSLARLNNVLAAAENLEGADVDILKGELYAMRALYHFDLARVFAKLPSTTDMNDLGIVLSTEVYPTDYIGTRATLQQTYDQILKDIETALPLLSKDKQTGHINYWGALAIRARAYLYLEKNKEALADCKEIIASSPYKLYTRDEYIGAWDKEGTNEAIFEILVTPNYNAQRNSIGYFTHASGYGECAATESFLEELAKHPGDIRTELFAKETDNGYDGTYPQKYKGRDGQIYVNNPKVVRLSEVYLIAAEAALKAGDTSAAAGYMNTLRKNRIENYTDVASITLDDILLERRLELFTEGHTAWDAWRNGKSVNNKFVGEVKPGDYRTIMAIPIGEITVSRGQLIQNPGY,glycan array binding signal (z-score),Neu5Ac(a2-8)Neu5Ac,-0.131
same,glycan array binding signal (z-score),[1],-0.315
same,glycan array binding signal (z-score),[2],0.512
same,glycan array binding signal (z-score),[3],-0.672
same,glycan array binding signal (z-score),[4],-0.385
same,glycan array binding signal (z-score),[5],-0.231
same,glycan array binding signal (z-score),[6],0.053
same,glycan array binding signal (z-score),[7],-0.277
same,glycan array binding signal (z-score),[8],-0.325
same,glycan array binding signal (z-score),[9],0.291
same,glycan array binding signal (z-score),[10],-0.415
same,glycan array binding signal (z-score),[11],0.361
same,glycan array binding signal (z-score),[12],-0.545
same,glycan array binding signal (z-score),[13],-0.387
same,glycan array binding signal (z-score),Neu5Ac(b2-6)GalNAc,-0.233
same,glycan array binding signal (z-score),[14],-0.431
same,glycan array binding signal (z-score),[15],-0.069
same,glycan array binding signal (z-score),[16],0.088
same,glycan array binding signal (z-score),[17],-0.334
same,glycan array binding signal (z-score),[18],-0.042
same,glycan array binding signal (z-score),Neu5Gc(a2-3)Gal(b1-4)Glc,0.466
same,glycan array binding signal (z-score),[19],-0.47
same,glycan array binding signal (z-score),[20],-0.097
same,glycan array binding signal (z-score),[21],0.133
same,glycan array binding signal (z-score),[22],0.031
same,glycan array binding signal (z-score),Neu5Gc(a2-6)GalNAc,-0.263
same,glycan array binding signal (z-score),[23],-0.422
same,glycan array binding signal (z-score),[24],-0.3
same,glycan array binding signal (z-score),[25],-0.373
same,glycan array binding signal (z-score),[26],-0.464
same,glycan array binding signal (z-score),[27],0.275
